Test results published in article PMC6919601, “Identification of Plasmodium dipeptidyl aminopeptidase allosteric inhibitors by high throughput screening” (PLoS ONE, 2019).
Where “and” joins values, the source holds several entries; their conditions need not be identical. Identical values can stand only once. Hit rate of the full screen: of about 110,000 compounds, about 230 (0.21%) showed an effect of 50% or more. This is one part of the list.

Target: DPAP1 (Plasmodium falciparum, UniProt Q8IIJ9)
Assay: primary screen, percent inhibition; read by cleavage of a fluorogenic dipeptide substrate; higher = more effect of the substance
Set-up: species or system P. falciparum D10 trophozoite lysates; single well
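Note: 30 min substrate incubation versus DMSO and 10 µM JCP410 controls.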

DPAP1, sequence (Q8IIJ9 whole entry, looked up): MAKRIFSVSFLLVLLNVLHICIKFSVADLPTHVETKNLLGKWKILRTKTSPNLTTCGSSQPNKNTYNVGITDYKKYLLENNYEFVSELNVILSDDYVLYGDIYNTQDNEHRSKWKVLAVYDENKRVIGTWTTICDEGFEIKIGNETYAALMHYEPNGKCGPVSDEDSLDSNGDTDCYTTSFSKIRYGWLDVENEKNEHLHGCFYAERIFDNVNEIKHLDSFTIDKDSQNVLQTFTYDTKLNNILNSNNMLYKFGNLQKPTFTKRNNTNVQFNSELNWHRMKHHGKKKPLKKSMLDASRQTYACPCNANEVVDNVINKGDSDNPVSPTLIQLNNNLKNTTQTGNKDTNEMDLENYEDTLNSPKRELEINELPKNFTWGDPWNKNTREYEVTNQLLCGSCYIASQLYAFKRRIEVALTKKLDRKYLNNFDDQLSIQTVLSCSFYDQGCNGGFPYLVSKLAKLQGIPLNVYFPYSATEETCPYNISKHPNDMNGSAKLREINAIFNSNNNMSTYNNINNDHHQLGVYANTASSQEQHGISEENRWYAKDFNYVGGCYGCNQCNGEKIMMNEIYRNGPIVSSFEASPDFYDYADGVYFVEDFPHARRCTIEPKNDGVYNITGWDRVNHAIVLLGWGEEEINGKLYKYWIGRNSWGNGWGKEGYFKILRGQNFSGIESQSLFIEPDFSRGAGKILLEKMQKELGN

Going from `Cc1c(C(=O)OC2CCCCC2)[nH]c2c1C(=O)CC(c1ccco1)C2` (stereo not shown) to `O=C(O)c1cccnc1SC1CC(=O)N(C2CCCCC2)C1=O` (stereo not shown), the “% Inhibition @ 10 uM” value falls from -2.19% to -4.43%.

Compared with `Cc1ccc(Cn2cccc2/C=C2\C(=N)N3N=C(N4CCCC4)SC3=NC2=O)cc1`, `N=C1/C(=C\c2ccc(O)c(O)c2)C(=O)N=C2SC(N3CCCC3)=NN12` is lower in “% Inhibition @ 10 uM” value: 3.32% for the first, -1.66% for the second.

Compared with `O=C([C@@H]1C[C@@H]1c1ccccc1)N1CCOCC1`, `Fc1ccccc1OCCCCN1CCOCC1` is lower in “% Inhibition @ 10 uM” value: 3.1% for the first, -2.12% for the second.

Compared with `N#CC1=C(S)NC(=O)C(C#N)C12CCCCC2` (stereo not shown), `CCSC1=C(C#N)C2(CCCC2)C(C#N)C(=O)N1` (stereo not shown) is lower in “% Inhibition @ 10 uM” value: 57.8% for the first, 1.44% for the second.

Compared with `O=C(Nc1cc(Cl)ccc1Cl)C1CC(=O)N(c2ccc(Cl)cc2)C1` (stereo not shown), `O=C(Cc1ccc(Cl)cc1)N1CCN(c2ccc(F)cc2)CC1` is lower in “% Inhibition @ 10 uM” value: 1.71% for the first, -3.29% for the second.

Compared with `Cc1ccc(CCNC(=O)C2CC(=O)N(CCC(C)C)C2)cc1` (stereo not shown), `Cc1ccc(CC2C(=O)N(CC(=O)O)C(=O)C2C)cc1` (stereo not shown) is lower in “% Inhibition @ 10 uM” value: 5.35% for the first, 3.59% for the second.

Compared with `C=CCNC(=O)COCc1cc(-c2cccs2)on1`, `CCOc1ccccc1-n1c(CCC(=O)O)ccc1-c1cccs1` is lower in “% Inhibition @ 10 uM” value: 1.6% for the first, -5.85% for the second.

Going from `Nc1ncc(Br)cc1S(=O)(=O)NCCC(=O)N1CCN(c2ccccn2)CC1` to `CN1CCN(c2ccc3nnc(CCC(=O)NCc4ccco4)n3n2)CC1`, the “% Inhibition @ 10 uM” value falls from -0.0652% to -6.47%.

Going from `CC1(C)CC(=O)C2=C(C1)N(Cc1ccc(F)cc1)C(=O)C2(NC(=O)c1cccnc1)C(F)(F)F` (stereo not shown) to `CC(C)(C)c1ccc(S(=O)(=O)NCc2ccc(C(=O)Nc3cccnc3)cc2)cc1`, the “% Inhibition @ 10 uM” value rises from 3.54% to 4.11%.

Going from `Cc1ccc(S(=O)(=O)N(CC(=O)NC(C)c2ccccc2)Cc2ccccc2)cc1` (stereo not shown) to `Cc1nn(CC(=O)NCCCN(Cc2ccccc2)C(C)C)c(=O)c2nn(-c3ccccc3)c(C)c12`, the “% Inhibition @ 10 uM” value falls from 0.131% to -2.12%.

Going from `O=C1c2cccnc2C(=O)N1Cc1ccc(S(=O)(=O)NCc2ccc(Cl)cc2)cc1` to `Cc1cccn2c(=O)c3cc(S(=O)(=O)c4ccc(Cl)cc4)c(=N)n(Cc4ccncc4)c3nc12`, the “% Inhibition @ 10 uM” value falls from 7.06% to 1.57%.

First: CC(C)CNC(=O)c1nc(-c2ccc(Cl)cc2)n2c1CCCCC2
Second: CC(C)CNC(=O)c1cc(-c2ccc(Cl)c(Cl)c2)on1
The “% Inhibition @ 10 uM” value of the first is higher: 2.73% for the first, -1.21% for the second.

First: O=C(c1cnc2c(c1)COc1ccccc1-2)c1cc(Cl)ccc1O
Second: Cc1cccc(CCNC(=O)c2cc3c(s2)-c2ccccc2OC3)c1
The “% Inhibition @ 10 uM” value of the first is lower: -10.8% for the first, -4.85% for the second.

Going from `COc1cc(Cl)cc(Cl)c1C1C(C#N)=C(N)OC2=C1C(=O)CCC2` (stereo not shown) to `Cc1ccc(C2C(C#N)=C(N)Oc3cc(N)ccc32)cc1` (stereo not shown), the “% Inhibition @ 10 uM” value rises from -14.1% to -4.76%.

First: CC(NC(=O)Cc1ccccc1)C1COc2ccccc2O1 (stereo not shown)
Second: COc1ccc(C(CC(=O)NCc2ccccc2Cl)N2Cc3ccccc3C2=O)cc1 (stereo not shown)
The “% Inhibition @ 10 uM” value of the first is higher: -1.88% for the first, -5.54% for the second.

Compared with `COc1cccc(C2C3=C(O)CC(c4ccccc4)CC3=Nc3ccccc3N2C(=O)CCC(=O)O)c1` (stereo not shown), `COCCN1C=C(C(=O)OC)C(c2cccc(Oc3ccccc3)c2)C(C(=O)OC)=C1` is higher in “% Inhibition @ 10 uM” value: -0.25% for the first, 3.93% for the second.

Compared with `Cc1cc(NC(=O)CSc2nnc(-c3ccc(C)c(C)c3)o2)no1`, `CCc1nnc(SCC(=O)NCc2ccc(C)cc2)c2cc3sccc3n12` is higher in “% Inhibition @ 10 uM” value: -4.03% for the first, -0.232% for the second.

First: COc1cc(OC)cc(C(=O)Nc2cccnc2)c1
Second: COc1ccc(C(=N)NOC(=O)c2cccc(F)c2)cc1
The “% Inhibition @ 10 uM” value of the first is higher: 13.2% for the first, 3.8% for the second.

First: Cc1cc(/C=C2/NC(=O)N(Cc3ccccc3F)C2=O)c(C)n1-c1ccccn1
Second: Cc1cc(C)cc(NC2=C(Cl)C(=O)N(Cc3ccccc3)C2=O)c1
The “% Inhibition @ 10 uM” value of the first is lower: -2.21% for the first, 2.76% for the second.

First: CCN(CC)CCCNC(=O)CCn1c(=O)c2cccn2c2cccnc21
Second: Cc1cccn2c(=O)c3cc(C#N)c(=O)n(Cc4ccco4)c3nc12
The “% Inhibition @ 10 uM” value of the first is higher: 5.41% for the first, -4.07% for the second.

Compared with `Clc1ccccc1OCc1nn2c(COc3ccccc3)nnc2s1`, `COc1ccccc1-c1nnc2sc(-c3cccc(Cl)c3)nn12` is lower in “% Inhibition @ 10 uM” value: 0.0539% for the first, -5.91% for the second.

First: N#Cc1cc2c(=O)n3ccccc3nc2n(Cc2ccccc2)c1=N
Second: O=C(CSc1nnc(-c2cccnc2)n1Cc1ccccc1)c1c[nH]c2ccccc12
The “% Inhibition @ 10 uM” value of the first is higher: 0.408% for the first, -3.21% for the second.

Going from `O=c1c(C(CC(O)c2ccc(-c3ccccc3)cc2)c2ccccc2)c(O)oc2ccccc12` (stereo not shown) to `O=C(c1ccccc1F)N1CCN(C(c2ccccc2)c2ccccc2)CC1`, the “% Inhibition @ 10 uM” value rises from -2.62% to 2.78%.

Going from `Cc1cc(-c2ccccc2)n(-c2ccc(C(N)=O)cc2)n1` to `Nc1nc(-c2ccccc2)cc(-c2ccccc2)n1`, the “% Inhibition @ 10 uM” value falls from 0.83% to -3.38%.

First: Cc1cc(C)cc(NC(=O)Cn2cnc3c2c(=O)n(C)c(=O)n3C)c1
Second: Cc1cc(C)c(-c2c(NC(C)(C)C)c(=O)c2=O)cc1C
The “% Inhibition @ 10 uM” value of the first is lower: -2.22% for the first, 3.08% for the second.

Going from `O=C1c2ccncc2C(=O)N1c1cccc(C(F)(F)F)c1` to `NC(=O)c1cc2nc3c(c(C(F)(F)F)n2n1)CCc1ccccc1-3`, the “% Inhibition @ 10 uM” value rises from -3.34% to -1.06%.

Going from `CC1CCc2nc3sc4c(c3c(N)c2C1)CCCC4` (stereo not shown) to `CCC1CCc2nc3sc(C(=O)Nc4ccc(OC)cc4)c(N)c3cc2C1` (stereo not shown), the “% Inhibition @ 10 uM” value falls from -3.34% to -4.21%.

Compared with `CC(C)Cc1nnc(O)c2c1nnn2Cc1ccccc1F`, `COC(=O)c1sccc1NC(=O)Cn1c(-c2nonc2N)nc2ccccc21` is higher in “% Inhibition @ 10 uM” value: -1.31% for the first, 0.0289% for the second.

First: CCCCc1n[nH]c(SCC(=O)Nc2nc(C)c(C(=O)OCC)s2)n1
Second: CCN(CC)S(=O)(=O)c1nnc(NC(=O)COc2ccc(OC)cc2)s1
The “% Inhibition @ 10 uM” value of the first is higher: 3.72% for the first, -3.51% for the second.

Compared with `Cn1nc(C(=O)N2CCC(c3ccccc3)C2)c2c1-c1ccccc1S(=O)(=O)C2` (stereo not shown), `CCOC(=O)N1CCN(C(=O)c2cc3c(ccc4ccccc43)oc2=O)CC1` is lower in “% Inhibition @ 10 uM” value: 3.71% for the first, -8.88% for the second.

Going from `COc1ccc(Cl)cc1N(CC(=O)Nc1ccc(C(N)=O)cc1)S(C)(=O)=O` to `CCc1ccc(OCC(=O)Nc2ccc(S(=O)(=O)N3CCC(C)CC3)cc2)c(Br)c1`, the “% Inhibition @ 10 uM” value rises from -5.14% to -0.312%.

First: COc1c(C#N)c(C#N)c(OC)c(OC)c1OC
Second: COc1ccc2c(c1OC)C(=O)N(c1cccc(F)c1)C2
The “% Inhibition @ 10 uM” value of the first is lower: -6.01% for the first, -2.03% for the second.

Compared with `CCCN1C/C(=C\c2ccc3c(c2)OCO3)C(=O)/C(=C/c2ccc3c(c2)OCO3)C1`, `O=C(NCCCO)/C(=C/c1ccc2c(c1)OCO2)NC(=O)c1ccco1` is lower in “% Inhibition @ 10 uM” value: 2.94% for the first, 0.222% for the second.

Compared with `OCC1CCCN1Cc1ccc(Cl)c(Cl)c1` (stereo not shown), `CCC1CCCCN1C(=O)CSc1nnc(CNC(=O)COc2ccc(Cl)cc2)o1` (stereo not shown) is higher in “% Inhibition @ 10 uM” value: -3.5% for the first, -3.39% for the second.

Going from `O=C(O)CSc1cc(NS(=O)(=O)c2ccc(Br)cc2)c2ccccc2c1O` to `O=C1c2ccccc2C(=O)c2c1cccc2S(=O)(=O)NCCO`, the “% Inhibition @ 10 uM” value rises from -6.35% to 4.74%.

Compared with `O=C(NCC1CCCO1)C12CC3CC(CC(C3)C1)C2` (stereo not shown), `CC1CCCN(c2nc3nonc3nc2N2CCCC(C)C2)C1` (stereo not shown) is lower in “% Inhibition @ 10 uM” value: 2.22% for the first, -2.15% for the second.

Going from `C=CCNC(=O)/C(=C\c1ccco1)NC(=O)c1ccco1` to `CC(=O)N/C(=C\c1ccccc1)C(=O)NC(CCC(=O)O)C(=O)O` (stereo not shown), the “% Inhibition @ 10 uM” value falls from 7.1% to 2.38%.

First: CCn1c2c(c3cc(F)ccc31)CCCC2=O
Second: CC(=O)Nc1sc2c(c1C(=O)Nc1cccc3ccccc13)CCC(C)C2 (stereo not shown)
The “% Inhibition @ 10 uM” value of the first is higher: 4.66% for the first, 1.67% for the second.

Going from `CC(=O)C1=C(C)OC(N)=C(C#N)C1c1cccs1` (stereo not shown) to `CCC(C)NC(=O)COc1cccc(C)c1C` (stereo not shown), the “% Inhibition @ 10 uM” value falls from 3.05% to 0.58%.

Going from `CC(=O)c1ccc(S(=O)(=O)N2CCN(CCC#N)CC2)cc1` to `CCOC(=O)N1CCN(C/C=C/c2ccc(N(C)C)cc2)CC1`, the “% Inhibition @ 10 uM” value falls from -1.82% to -11.2%.

First: Cc1cccc2sc(NC(=O)C(NS(=O)(=O)c3cccs3)C(C)C)nc12 (stereo not shown)
Second: COc1ccc(Br)cc1CNCc1cccs1
The “% Inhibition @ 10 uM” value of the first is lower: 0.0654% for the first, 2.02% for the second.

Going from `CCN1CCN(C(=O)c2ccc(CS(=O)c3ccc(Br)cc3)o2)CC1` (stereo not shown) to `COc1ccc(CC(=O)N2CCN(c3ccc(F)cc3)CC2)cc1`, the “% Inhibition @ 10 uM” value rises from 0.458% to 4.22%.

Going from `COc1cc2c(cc1OC)C(C)N(CCC(=O)O)CC2` (stereo not shown) to `COc1ccc(CNC(=O)CCc2c(C)c3cc4c(C)coc4cc3oc2=O)cc1OC`, the “% Inhibition @ 10 uM” value rises from -2.29% to -0.808%.

Compared with `O=C(O)CCCC(=O)Nc1ccccc1Br`, `COCCCNC(=O)C1Sc2nnc(C)n2NC1c1ccccc1` (stereo not shown) is higher in “% Inhibition @ 10 uM” value: -6.22% for the first, -3.53% for the second.

First: CCN1CCN(Cc2cc3c(cc2[N+](=O)[O-])OCO3)CC1
Second: Cc1cc(C)n(-c2cc(N3CCOCC3)nc(C)n2)n1
The “% Inhibition @ 10 uM” value of the first is lower: -0.828% for the first, 5.73% for the second.

First: CCc1ccc(/C=C2\C(=N)N3N=C(N4CCOCC4)SC3=NC2=O)cc1
Second: CN1C(=O)/C(=C\c2cccc(OC(=O)c3ccco3)c2)SC1=S
The “% Inhibition @ 10 uM” value of the first is higher: 28% for the first, -0.582% for the second.

First: COc1ccc(C2CC(C(F)(F)F)n3ncc(C(=O)NC(C)C)c3N2)cc1 (stereo not shown)
Second: COc1cccc(-n2c(SCC(=O)NC3CCCCC3)nc3nnc(C)c-3c2N)c1
The “% Inhibition @ 10 uM” value of the first is lower: -9.3% for the first, 4.35% for the second.

Compared with `CC1=[N+]([O-])C(C)(C)C(c2ccc(Cl)cc2)=[N+]1[O-]`, `COCCCNC(=O)c1cc2c(s1)-c1ccc(Cl)cc1SC2` is higher in “% Inhibition @ 10 uM” value: -7.23% for the first, -0.72% for the second.

Compared with `C=CCOc1cccc(/C=C2/Sc3ccccc3C2=O)c1`, `Nc1ccc(-c2cc(-c3ccccc3)nc(-c3ccc(N)cc3)n2)cc1` is lower in “% Inhibition @ 10 uM” value: -0.996% for the first, -1.74% for the second.

In the case of `O=[N+]([O-])c1ccc(/C=C/c2nnnn2-c2ccc([N+](=O)[O-])cc2)cc1`, the “% Inhibition @ 10 uM” value is reported as -2.03%.

In the case of `COc1cccc(NC(=O)CN(c2cc(OC)ccc2OC)S(C)(=O)=O)c1`, the “% Inhibition @ 10 uM” value is reported as 1.92% and -1.37%.
